# The list shows a part of the results.
# B1: CSA (Cytisus scoparius), P29257 (protein)
# chain: SEELSFSFTKFKTDQKNLILQRDALITPTGKLQLTTVENGKPAAYSLGRALYSTPIHIWDKSTGDEASFATFFSFVISDAPNPSTAATDGLAFFLAPADTQPQSAGGYLGLFEKDSSYNSSNQIVAVEFDTYYNSAWDPQTNPHIGIDVNTIKSKKVSSWGFKNGNVATVLITYQPSSKSLVASLVYPSGQTSDKTSYIISANVDLKATVPEWVRIGFSATTGQTDNYIETHDILSWSFKSKLPATKN
# Key:
# Test in all cases: glycan array binding signal (z-score within array); higher = stronger binding
# Conditions in all cases: glycan notation: IUPAC condensed, linker removed
# [1] = target: Fuc(a1-2)[Gal(a1-3)]Gal(b1-4)GlcNAc(b1-2)Man
# Procedure, shortened: (§1)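 The binding signal is a Z-score computed within each array and averaged over linkers. Arrays of the same protein sequence at different concentrations or buffers were also averaged together. Data originate from 3228 arrays in the Consortium for Functional Glycomics database, kept only where the protein sequence was available.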
# [2] = target: Fuc(a1-2)[Gal(a1-3)]Gal(b1-4)GlcNAc(b1-2)Man(a1-3)[Fuc(a1-2)[Gal(a1-3)]Gal(b1-4)GlcNAc(b1-2)Man(a1-6)]Man(b1-4)GlcNAc(b1-4)GlcNAc
# Procedure, shortened: as §1
# [3] = target: Fuc(a1-2)[Gal(a1-3)]Gal(b1-4)GlcNAc(b1-2)Man(a1-3)[Fuc(a1-2)[Gal(a1-3)]Gal(b1-4)GlcNAc(b1-2)Man(a1-6)]Man(b1-4)GlcNAc(b1-4)[Fuc(a1-6)]GlcNAc
# Procedure, shortened: as §1
# [4] = target: Fuc(a1-2)[Gal(a1-3)]Gal(b1-4)GlcNAc(b1-3)GalNAc
# Procedure, shortened: as §1
# [5] = target: Fuc(a1-2)[Gal(a1-3)]Gal(b1-4)GlcNAc(b1-3)[Fuc(a1-2)[Gal(a1-3)]Gal(b1-4)GlcNAc(b1-6)]GalNAc
# Procedure, shortened: as §1
# [6] = target: Fuc(a1-2)[Gal(a1-3)]Gal(b1-4)GlcNAc(b1-6)GalNAc
# Procedure, shortened: as §1
# [7] = target: Fuc(a1-2)[Gal(a1-3)]Gal(b1-4)[Fuc(a1-3)]Glc
# Procedure, shortened: as §1
# [8] = target: Fuc(a1-2)[Gal(a1-3)]Gal(b1-4)[Fuc(a1-3)]GlcNAc
# Procedure, shortened: as §1
# [9] = target: Fuc(a1-2)[Gal(a1-3)]Gal(b1-4)[Fuc(a1-3)]GlcNAc(b1-3)GalNAc
# Procedure, shortened: as §1
# [10] = target: Fuc(a1-2)[Gal(a1-4)]Gal(b1-4)GlcNAc
# Procedure, shortened: as §1
# [11] = target: Fuc(a1-2)[GalNAc(a1-3)]Gal
# Procedure, shortened: as §1
# [12] = target: Fuc(a1-2)[GalNAc(a1-3)]Gal(b1-3)GalNAc(a1-3)[Fuc(a1-2)]Gal(b1-4)GlcNAc
# Procedure, shortened: as §1
# [13] = target: Fuc(a1-2)[GalNAc(a1-3)]Gal(b1-3)GalNAc(b1-3)Gal(a1-4)Gal(b1-4)Glc
# Procedure, shortened: as §1
# [14] = target: Fuc(a1-2)[GalNAc(a1-3)]Gal(b1-3)GlcNAc
# Procedure, shortened: as §1
# [15] = target: Fuc(a1-2)[GalNAc(a1-3)]Gal(b1-3)GlcNAc(b1-2)Man(a1-3)[Fuc(a1-2)[GalNAc(a1-3)]Gal(b1-3)GlcNAc(b1-2)Man(a1-6)]Man(b1-4)GlcNAc(b1-4)GlcNAc
# Procedure, shortened: as §1
# [16] = target: Fuc(a1-2)[GalNAc(a1-3)]Gal(b1-3)GlcNAc(b1-2)Man(a1-3)[Fuc(a1-2)[GalNAc(a1-3)]Gal(b1-3)GlcNAc(b1-2)Man(a1-6)]Man(b1-4)GlcNAc(b1-4)[Fuc(a1-6)]GlcNAc
# Procedure, shortened: as §1
# [17] = target: Fuc(a1-2)[GalNAc(a1-3)]Gal(b1-3)GlcNAc(b1-3)GalNAc
# Procedure, shortened: as §1
# [18] = target: Fuc(a1-2)[GalNAc(a1-3)]Gal(b1-3)GlcNAc(b1-6)GalNAc
# Procedure, shortened: as §1
# [19] = target: Fuc(a1-2)[GalNAc(a1-3)]Gal(b1-4)Glc
# Procedure, shortened: as §1
# [20] = target: Fuc(a1-2)[GalNAc(a1-3)]Gal(b1-4)GlcNAc
# Procedure, shortened: as §1
# [21] = target: Fuc(a1-2)[GalNAc(a1-3)]Gal(b1-4)GlcNAc(b1-2)Man
# Procedure, shortened: as §1
# [22] = target: Fuc(a1-2)[GalNAc(a1-3)]Gal(b1-4)GlcNAc(b1-2)Man(a1-3)[Fuc(a1-2)[GalNAc(a1-3)]Gal(b1-4)GlcNAc(b1-2)Man(a1-6)]Man(b1-4)GlcNAc(b1-4)GlcNAc
# Procedure, shortened: as §1
# [23] = target: Fuc(a1-2)[GalNAc(a1-3)]Gal(b1-4)GlcNAc(b1-2)Man(a1-3)[Fuc(a1-2)[GalNAc(a1-3)]Gal(b1-4)GlcNAc(b1-2)Man(a1-6)]Man(b1-4)GlcNAc(b1-4)[Fuc(a1-6)]GlcNAc
# Procedure, shortened: as §1
# [24] = target: Fuc(a1-2)[GalNAc(a1-3)]Gal(b1-4)GlcNAc(b1-3)Gal(b1-4)GlcNAc
# Procedure, shortened: as §1
# [25] = target: Fuc(a1-2)[GalNAc(a1-3)]Gal(b1-4)GlcNAc(b1-3)Gal(b1-4)GlcNAc(b1-3)Gal(b1-4)GlcNAc
# Procedure, shortened: as §1
# [26] = target: Fuc(a1-2)[GalNAc(a1-3)]Gal(b1-4)GlcNAc(b1-3)GalNAc
# Procedure, shortened: as §1
# [27] = target: Fuc(a1-2)[GalNAc(a1-3)]Gal(b1-4)GlcNAc(b1-3)[Fuc(a1-2)[GalNAc(a1-3)]Gal(b1-4)GlcNAc(b1-6)]GalNAc
# Procedure, shortened: as §1
# [28] = target: Fuc(a1-2)[GalNAc(a1-3)]Gal(b1-4)GlcNAc(b1-6)GalNAc
# Procedure, shortened: as §1
# [29] = target: Fuc(a1-2)[GalNAc(a1-3)]Gal(b1-4)[Fuc(a1-3)]GlcNAc
# Procedure, shortened: as §1
# [30] = target: Fuc(a1-2)[GalNAc(a1-3)]Gal(b1-4)[Fuc(a1-3)]GlcNAc(b1-3)GalNAc
# Procedure, shortened: as §1
# [31] = target: Fuc(a1-2)[GalNAc(a1-4)]Gal(b1-4)GlcNAc
# Procedure, shortened: as §1
# [32] = target: Fuc(a1-2)[GalNAc(b1-3)]Gal
# Procedure, shortened: as §1
# Fuc(a1-3)GlcNAc = target: Fuc(a1-3)GlcNAc
# Procedure, shortened: as §1
# [33] = target: Fuc(a1-3)[Gal(b1-4)]Glc6S
# Procedure, shortened: as §1
# [34] = target: Fuc(a1-3)[Gal(b1-4)]GlcNAc
# Procedure, shortened: as §1
# [35] = target: Fuc(a1-3)[Gal(b1-4)]GlcNAc(b1-2)Man
# Procedure, shortened: as §1
# [36] = target: Fuc(a1-3)[Gal(b1-4)]GlcNAc(b1-2)Man(a1-3)[Fuc(a1-3)[Gal(b1-4)]GlcNAc(b1-2)Man(a1-6)]Man(b1-4)GlcNAc(b1-4)GlcNAc
# Procedure, shortened: as §1
# [37] = target: Fuc(a1-3)[Gal(b1-4)]GlcNAc(b1-2)Man(a1-3)[Fuc(a1-3)[Gal(b1-4)]GlcNAc(b1-2)Man(a1-6)]Man(b1-4)GlcNAc(b1-4)[Fuc(a1-6)]GlcNAc
# Procedure, shortened: as §1
# [38] = target: Fuc(a1-3)[Gal(b1-4)]GlcNAc(b1-3)Gal(b1-3)[Fuc(a1-4)]GlcNAc
# Procedure, shortened: as §1
# [39] = target: Fuc(a1-3)[Gal(b1-4)]GlcNAc(b1-3)Gal(b1-4)[Fuc(a1-3)]GlcNAc
# Procedure, shortened: as §1
# [40] = target: Fuc(a1-3)[Gal(b1-4)]GlcNAc(b1-3)Gal(b1-4)[Fuc(a1-3)]GlcNAc(b1-3)Gal(b1-4)[Fuc(a1-3)]GlcNAc
# Procedure, shortened: as §1
# [41] = target: Fuc(a1-3)[Gal(b1-4)]GlcNAc(b1-3)GalNAc
# Procedure, shortened: as §1
# [42] = target: Fuc(a1-3)[Gal(b1-4)]GlcNAc(b1-4)Gal(b1-4)[Fuc(a1-3)]GlcNAc
# Procedure, shortened: as §1
# [43] = target: Fuc(a1-3)[Gal(b1-4)]GlcNAc(b1-4)Gal(b1-4)[Fuc(a1-3)]GlcNAc(b1-4)Gal(b1-4)[Fuc(a1-3)]GlcNAc
# Procedure, shortened: as §1
# [44] = target: Fuc(a1-3)[Gal(b1-4)]GlcNAc(b1-6)GalNAc
# Procedure, shortened: as §1
# [45] = target: Fuc(a1-3)[Gal(b1-4)]GlcNAc(b1-6)[Gal(b1-3)GlcNAc(b1-3)]Gal(b1-4)Glc
# Procedure, shortened: as §1
# [46] = target: Fuc(a1-3)[Gal(b1-4)]GlcNAc6S
# Procedure, shortened: as §1
# [47] = target: Fuc(a1-3)[Gal3S(b1-4)]Glc
# Procedure, shortened: as §1
# [48] = target: Fuc(a1-3)[Gal3S(b1-4)]GlcNAc
# Procedure, shortened: as §1
# [49] = target: Fuc(a1-3)[Gal3S(b1-4)]GlcNAc6S
# Procedure, shortened: as §1
# [50] = target: Fuc(a1-3)[GalNAc(b1-4)]GlcNAc
# Procedure, shortened: as §1
# [51] = target: Fuc(a1-3)[GalNAc(b1-4)]GlcNAc6S
# Procedure, shortened: as §1
# Fuc(a1-4)GlcNAc = target: Fuc(a1-4)GlcNAc
# Procedure, shortened: as §1
# Fuc(b1-3)GlcNAc = target: Fuc(b1-3)GlcNAc
# Procedure, shortened: as §1
# Gal(a1-2)Gal = target: Gal(a1-2)Gal
# Procedure, shortened: as §1
# Gal(a1-3)Gal = target: Gal(a1-3)Gal
# Procedure, shortened: as §1
# Gal(a1-3)Gal(b1-3)GlcNAc = target: Gal(a1-3)Gal(b1-3)GlcNAc
# Procedure, shortened: as §1
# [52] = target: Gal(a1-3)Gal(b1-3)GlcNAc(b1-2)Man
# Procedure, shortened: as §1
# [53] = target: Gal(a1-3)Gal(b1-3)GlcNAc(b1-2)Man(a1-3)[Gal(a1-3)Gal(b1-3)GlcNAc(b1-2)Man(a1-6)]Man(b1-4)GlcNAc(b1-4)GlcNAc
# Procedure, shortened: as §1
# [54] = target: Gal(a1-3)Gal(b1-3)GlcNAc(b1-3)GalNAc
# Procedure, shortened: as §1
binder,measurement,setting,value
B1,glycan array binding signal (z-score),[1],-0.181
same,glycan array binding signal (z-score),[2],-0.169
same,glycan array binding signal (z-score),[3],-0.195
same,glycan array binding signal (z-score),[4],-0.208
same,glycan array binding signal (z-score),[5],-0.16
same,glycan array binding signal (z-score),[6],-0.165
same,glycan array binding signal (z-score),[7],-0.201
same,glycan array binding signal (z-score),[8],-0.181
same,glycan array binding signal (z-score),[9],-0.159
same,glycan array binding signal (z-score),[10],-0.192
same,glycan array binding signal (z-score),[11],-0.194
same,glycan array binding signal (z-score),[12],-0.196
same,glycan array binding signal (z-score),[13],-0.184
same,glycan array binding signal (z-score),[14],-0.192
same,glycan array binding signal (z-score),[15],-0.115
same,glycan array binding signal (z-score),[16],-0.206
same,glycan array binding signal (z-score),[17],-0.15
same,glycan array binding signal (z-score),[18],-0.214
same,glycan array binding signal (z-score),[19],-0.153
same,glycan array binding signal (z-score),[20],-0.184
same,glycan array binding signal (z-score),[21],-0.18
same,glycan array binding signal (z-score),[22],-0.132
same,glycan array binding signal (z-score),[23],-0.142
same,glycan array binding signal (z-score),[24],-0.112
same,glycan array binding signal (z-score),[25],-0.012
same,glycan array binding signal (z-score),[26],-0.156
same,glycan array binding signal (z-score),[27],-0.225
same,glycan array binding signal (z-score),[28],-0.105
same,glycan array binding signal (z-score),[29],-0.127
same,glycan array binding signal (z-score),[30],-0.2
same,glycan array binding signal (z-score),[31],-0.148
same,glycan array binding signal (z-score),[32],4.5
same,glycan array binding signal (z-score),Fuc(a1-3)GlcNAc,-0.136
same,glycan array binding signal (z-score),[33],-0.122
same,glycan array binding signal (z-score),[34],-0.207
same,glycan array binding signal (z-score),[35],-0.213
same,glycan array binding signal (z-score),[36],-0.131
same,glycan array binding signal (z-score),[37],-0.043
same,glycan array binding signal (z-score),[38],-0.128
same,glycan array binding signal (z-score),[39],-0.149
same,glycan array binding signal (z-score),[40],-0.166
same,glycan array binding signal (z-score),[41],-0.185
same,glycan array binding signal (z-score),[42],-0.175
same,glycan array binding signal (z-score),[43],-0.172
same,glycan array binding signal (z-score),[44],0.009
same,glycan array binding signal (z-score),[45],-0.228
same,glycan array binding signal (z-score),[46],-0.043
same,glycan array binding signal (z-score),[47],-0.165
same,glycan array binding signal (z-score),[48],-0.093
same,glycan array binding signal (z-score),[49],-0.155
same,glycan array binding signal (z-score),[50],-0.189
same,glycan array binding signal (z-score),[51],-0.175
same,glycan array binding signal (z-score),Fuc(a1-4)GlcNAc,-0.201
same,glycan array binding signal (z-score),Fuc(b1-3)GlcNAc,-0.186
same,glycan array binding signal (z-score),Gal(a1-2)Gal,-0.183
same,glycan array binding signal (z-score),Gal(a1-3)Gal,-0.186
same,glycan array binding signal (z-score),Gal(a1-3)Gal(b1-3)GlcNAc,-0.158
same,glycan array binding signal (z-score),[52],-0.192
same,glycan array binding signal (z-score),[53],0.014
same,glycan array binding signal (z-score),[54],-0.187

# Reference: the supplement of paper PMC8728848
